Assay results reported in patent US20030120073A1, “Alpha-ketocarboxylic acid based inhibitors of phosphoryl tyrosine phosphatases” (priority 2001, published 2003).

Assays:
LAR PTPase = molecular target: T1, LAR PTPase (Homo sapiens, UniProt P10586); assay: LAR PTPase assay (p-NPP hydrolysis, UV at 420 nm); conditions: Table 2; average of two measurements; 2.5 mM p-NPP, pH 5.5, 10% DMSO
T1 construct: purchased Calbiochem
T1 sequence (P10586 1301-1639 limits assumed): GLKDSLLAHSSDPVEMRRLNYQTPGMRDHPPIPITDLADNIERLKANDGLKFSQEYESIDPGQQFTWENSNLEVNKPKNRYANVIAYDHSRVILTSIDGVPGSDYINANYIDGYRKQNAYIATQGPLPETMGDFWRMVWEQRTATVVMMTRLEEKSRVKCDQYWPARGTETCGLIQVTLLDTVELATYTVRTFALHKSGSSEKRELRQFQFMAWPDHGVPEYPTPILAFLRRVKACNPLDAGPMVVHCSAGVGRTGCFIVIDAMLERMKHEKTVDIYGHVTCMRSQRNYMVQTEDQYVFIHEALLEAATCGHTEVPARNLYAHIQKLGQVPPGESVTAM
Experimental: (§1) Yersinia and LAR PTPase Assays: The phosphatase activities of the Yersinia and LAR PTPases (purchased from Calbiochem) were assayed using p-NPP as the substrate and the reaction progress was monitored by UV spectroscopy. Initial rates were determined by monitoring the hydrolysis of p-NPP at 420 nm, from 10 to 120 s after mixing. Assay solutions contained 2.5 mM substrate, 1 mM EDTA, 100 mM NaCl, 100 mM acetate at pH 5.5, and 10% DMSO. IC50 values were calculated using a Dixon analysis. Data analysis was performed with the commercial graphing package Grafit (Erithacus Software Ltd.).

PTP1B = molecular target: T2, PTP1B (Homo sapiens, UniProt P18031); assay: PTP1B assay (p-NPP hydrolysis, UV at 420 nm); type: biochemical; conditions: Table 2; average of two measurements; 1.2 mM p-NPP, pH 5.5, 10% DMSO
T2 construct: purchased Calbiochem
T2 sequence (P18031 1-435): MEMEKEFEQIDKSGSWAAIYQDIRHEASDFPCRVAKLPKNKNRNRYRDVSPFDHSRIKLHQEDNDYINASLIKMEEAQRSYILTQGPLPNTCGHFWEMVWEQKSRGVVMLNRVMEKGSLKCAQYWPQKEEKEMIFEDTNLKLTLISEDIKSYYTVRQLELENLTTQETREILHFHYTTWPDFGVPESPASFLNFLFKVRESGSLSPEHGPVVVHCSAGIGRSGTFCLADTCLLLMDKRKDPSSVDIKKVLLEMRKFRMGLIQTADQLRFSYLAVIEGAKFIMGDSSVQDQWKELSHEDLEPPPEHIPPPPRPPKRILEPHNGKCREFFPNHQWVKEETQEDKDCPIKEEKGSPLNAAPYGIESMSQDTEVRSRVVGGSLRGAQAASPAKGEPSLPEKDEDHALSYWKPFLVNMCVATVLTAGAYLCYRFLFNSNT
Experimental: as §1, with “PTP1B Assay: PTP1B (purchased” for “Yersinia and LAR PTPase Assays: The phosphatase activities of the Yersinia and LAR PTPases (purchased”, “Calbiochem) was” for “Calbiochem) were”, “assayed usingp-NPP” for “assayed using p-NPP”, “contained 1.2” for “contained 2.5”, “NaCl, and” for “NaCl,”

O=C(O)C(=O)c1ccc(O)cc1 [Compound 27]
IC50 (LAR PTPase): 540 ± 80 µM
IC50 (PTP1B): 250 ± 30 µM
